# Some of the results follow.
# B1: PpFlo2 (Pichia pastoris) (protein)
# chain: MGSSHHHHHHSSGLVPRGSHMDDSGNGDNSDTAYGCDITTNAVDGFDATIYQYNANDLRLIRDPTFMSTGYLGRNVLNKISGVTVPGFNIWNPSSRTATVYGVKNVNYYNMVLELKGYFKADVSGDYKLTLSHIDDSSMLFFGKETAFKCCDAGSIPLNEAPTDYSLFTIKPSNQVNSEVISATQYLEAGKYYPVRIVFVNALERARFDFKLTIPSGAVLDDFQNYIYQFGDLDENSCHE
# Key:
# Assay in all cases: glycan array binding signal (z-score within array); higher = stronger binding
# Settings in all cases: glycan notation: IUPAC condensed, linker removed
# [1] = target: Gal(b1-3)[Neu5Ac(a2-6)]GlcNAc(b1-6)Gal(b1-4)Glc
# Summary of the method: (§1)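 Glycan array data came from 3228 arrays in the Consortium for Functional Glycomics database, and only arrays with an available protein sequence were kept. Glycan names were put into IUPAC-condensed notation, and columns mapping to the same glycan were averaged. The binding signal is a within-array Z-score, averaged across arrays of one protein sequence run at different concentrations or buffers and across linkers. A negative Z-score can be read as non-binding.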
# [2] = target: Gal(b1-3)[Neu5Ac(b2-6)]GalNAc
# Summary of the method: as §1
# Gal(b1-4)Gal = target: Gal(b1-4)Gal
# Summary of the method: as §1
# [3] = target: Gal(b1-4)GalNAc(a1-3)[Fuc(a1-2)]Gal(b1-4)GlcNAc
# Summary of the method: as §1
# [4] = target: Gal(b1-4)GalNAc(b1-3)[Fuc(a1-2)]Gal(b1-4)GlcNAc
# Summary of the method: as §1
# Gal(b1-4)Glc = target: Gal(b1-4)Glc
# Summary of the method: as §1
# Gal(b1-4)Glc6S = target: Gal(b1-4)Glc6S
# Summary of the method: as §1
# Gal(b1-4)GlcNAc = target: Gal(b1-4)GlcNAc
# Summary of the method: as §1
# [5] = target: Gal(b1-4)GlcNAc(a1-6)Gal(b1-4)GlcNAc
# Summary of the method: as §1
# Gal(b1-4)GlcNAc(b1-2)Man = target: Gal(b1-4)GlcNAc(b1-2)Man
# Summary of the method: as §1
# [6] = target: Gal(b1-4)GlcNAc(b1-2)Man(a1-3)Man(b1-4)GlcNAc(b1-4)GlcNAc
# Summary of the method: as §1
# [7] = target: Gal(b1-4)GlcNAc(b1-2)Man(a1-3)[Gal(b1-4)GlcNAc(b1-2)Man(a1-6)]Man(b1-4)GlcNAc(b1-4)GlcNAc
# Summary of the method: as §1
# [8] = target: Gal(b1-4)GlcNAc(b1-2)Man(a1-3)[Gal(b1-4)GlcNAc(b1-2)Man(a1-6)]Man(b1-4)GlcNAc(b1-4)[Fuc(a1-6)]GlcNAc
# Summary of the method: as §1
# [9] = target: Gal(b1-4)GlcNAc(b1-2)Man(a1-3)[Gal(b1-4)GlcNAc(b1-2)Man(a1-6)][Gal(b1-4)GlcNAc(b1-4)]Man(b1-4)GlcNAc(b1-4)[Fuc(a1-6)]GlcNAc
# Summary of the method: as §1
# [10] = target: Gal(b1-4)GlcNAc(b1-2)Man(a1-3)[Gal(b1-4)GlcNAc(b1-2)Man(a1-6)][GlcNAc(b1-4)]Man(b1-4)GlcNAc(b1-4)[Fuc(a1-6)]GlcNAc
# Summary of the method: as §1
# [11] = target: Gal(b1-4)GlcNAc(b1-2)Man(a1-3)[Gal(b1-4)GlcNAc(b1-2)][GlcNAc(b1-4)]Man(b1-4)GlcNAc(b1-4)GlcNAc
# Summary of the method: as §1
# [12] = target: Gal(b1-4)GlcNAc(b1-2)Man(a1-3)[GlcNAc(b1-2)Man(a1-6)]Man(b1-4)GlcNAc(b1-4)GlcNAc
# Summary of the method: as §1
# [13] = target: Gal(b1-4)GlcNAc(b1-2)Man(a1-3)[GlcNAc(b1-4)][Gal(b1-4)GlcNAc(b1-2)Man(a1-6)]Man(b1-4)GlcNAc(b1-4)GlcNAc
# Summary of the method: as §1
# [14] = target: Gal(b1-4)GlcNAc(b1-2)Man(a1-3)[Man(a1-6)]Man(b1-4)GlcNAc(b1-4)GlcNAc
# Summary of the method: as §1
# [15] = target: Gal(b1-4)GlcNAc(b1-2)Man(a1-6)Man(b1-4)GlcNAc(b1-4)GlcNAc
# Summary of the method: as §1
# [16] = target: Gal(b1-4)GlcNAc(b1-2)Man(a1-6)[GlcNAc(b1-2)Man(a1-3)]Man(b1-4)GlcNAc(b1-4)GlcNAc
# Summary of the method: as §1
# [17] = target: Gal(b1-4)GlcNAc(b1-2)Man(a1-6)[Man(a1-3)]Man(b1-4)GlcNAc(b1-4)GlcNAc
# Summary of the method: as §1
# [18] = target: Gal(b1-4)GlcNAc(b1-2)[Gal(b1-4)GlcNAc(b1-4)]Man(a1-3)[Gal(b1-4)GlcNAc(b1-2)Man(a1-6)]Man(b1-4)GlcNAc(b1-4)GlcNAc
# Summary of the method: as §1
# [19] = target: Gal(b1-4)GlcNAc(b1-2)[Gal(b1-4)GlcNAc(b1-4)]Man(a1-3)[Gal(b1-4)GlcNAc(b1-2)[Gal(b1-4)GlcNAc(b1-6)]Man(a1-6)]Man(b1-4)GlcNAc(b1-4)GlcNAc
# Summary of the method: as §1
# [20] = target: Gal(b1-4)GlcNAc(b1-2)[Gal(b1-4)GlcNAc(b1-4)]Man(a1-3)[GlcNAc(b1-4)][Gal(b1-4)GlcNAc(b1-2)Man(a1-6)]Man(b1-4)GlcNAc(b1-4)GlcNAc
# Summary of the method: as §1
# [21] = target: Gal(b1-4)GlcNAc(b1-2)[Gal(b1-4)GlcNAc(b1-4)]Man(a1-3)[GlcNAc(b1-4)][Gal(b1-4)GlcNAc(b1-2)[Gal(b1-4)GlcNAc(b1-6)]Man(a1-6)]Man(b1-4)GlcNAc(b1-4)GlcNAc
# Summary of the method: as §1
# [22] = target: Gal(b1-4)GlcNAc(b1-2)[Gal(b1-4)GlcNAc(b1-6)]Man(a1-6)[Gal(b1-4)GlcNAc(b1-2)Man(a1-3)]Man(b1-4)GlcNAc(b1-4)GlcNAc
# Summary of the method: as §1
# [23] = target: Gal(b1-4)GlcNAc(b1-2)[Gal(b1-4)GlcNAc(b1-6)]Man(a1-6)[Gal(b1-4)GlcNAc(b1-2)Man(a1-3)]Man(b1-4)GlcNAc(b1-4)[Fuc(a1-6)]GlcNAc
# Summary of the method: as §1
# [24] = target: Gal(b1-4)GlcNAc(b1-2)[Gal(b1-4)GlcNAc(b1-6)]Man(a1-6)[GlcNAc(b1-4)][Gal(b1-4)GlcNAc(b1-2)Man(a1-3)]Man(b1-4)GlcNAc(b1-4)GlcNAc
# Summary of the method: as §1
# [25] = target: Gal(b1-4)GlcNAc(b1-2)[Gal(b1-4)GlcNAc(b1-6)]Man(a1-6)[GlcNAc(b1-4)][Gal(b1-4)GlcNAc(b1-2)[Gal(b1-4)GlcNAc(b1-4)]Man(a1-3)]Man(b1-4)GlcNAc(b1-4)[Fuc(a1-6)]GlcNAc
# Summary of the method: as §1
# [26] = target: Gal(b1-4)GlcNAc(b1-3)Gal(b1-3)GalNAc
# Summary of the method: as §1
# [27] = target: Gal(b1-4)GlcNAc(b1-3)Gal(b1-3)GlcNAc
# Summary of the method: as §1
# [28] = target: Gal(b1-4)GlcNAc(b1-3)Gal(b1-4)Glc
# Summary of the method: as §1
# [29] = target: Gal(b1-4)GlcNAc(b1-3)Gal(b1-4)GlcNAc
# Summary of the method: as §1
# [30] = target: Gal(b1-4)GlcNAc(b1-3)Gal(b1-4)GlcNAc(b1-2)Man(a1-3)[Gal(b1-4)GlcNAc(b1-3)Gal(b1-4)GlcNAc(b1-2)Man(a1-6)]Man(b1-4)GlcNAc(b1-4)GlcNAc
# Summary of the method: as §1
# [31] = target: Gal(b1-4)GlcNAc(b1-3)Gal(b1-4)GlcNAc(b1-2)Man(a1-3)[Gal(b1-4)GlcNAc(b1-3)Gal(b1-4)GlcNAc(b1-2)Man(a1-6)]Man(b1-4)GlcNAc(b1-4)[Fuc(a1-6)]GlcNAc
# Summary of the method: as §1
# [32] = target: Gal(b1-4)GlcNAc(b1-3)Gal(b1-4)GlcNAc(b1-2)[Gal(b1-4)GlcNAc(b1-3)Gal(b1-4)GlcNAc(b1-6)]Man(a1-6)[Gal(b1-4)GlcNAc(b1-3)Gal(b1-4)GlcNAc(b1-2)Man(a1-3)]Man(b1-4)GlcNAc(b1-4)GlcNAc
# Summary of the method: as §1
# [33] = target: Gal(b1-4)GlcNAc(b1-3)Gal(b1-4)GlcNAc(b1-2)[Gal(b1-4)GlcNAc(b1-3)Gal(b1-4)GlcNAc(b1-6)]Man(a1-6)[Gal(b1-4)GlcNAc(b1-3)Gal(b1-4)GlcNAc(b1-2)Man(a1-3)]Man(b1-4)GlcNAc(b1-4)[Fuc(a1-6)]GlcNAc
# Summary of the method: as §1
binder,measurement,setting,value
B1,glycan array binding signal (z-score),[1],-0.357
same,glycan array binding signal (z-score),[2],-0.298
same,glycan array binding signal (z-score),Gal(b1-4)Gal,-0.302
same,glycan array binding signal (z-score),[3],-0.294
same,glycan array binding signal (z-score),[4],-0.302
same,glycan array binding signal (z-score),Gal(b1-4)Glc,-0.237
same,glycan array binding signal (z-score),Gal(b1-4)Glc6S,-0.296
same,glycan array binding signal (z-score),Gal(b1-4)GlcNAc,-0.172
same,glycan array binding signal (z-score),[5],-0.273
same,glycan array binding signal (z-score),Gal(b1-4)GlcNAc(b1-2)Man,-0.299
same,glycan array binding signal (z-score),[6],-0.282
same,glycan array binding signal (z-score),[7],-0.256
same,glycan array binding signal (z-score),[8],-0.292
same,glycan array binding signal (z-score),[9],-0.267
same,glycan array binding signal (z-score),[10],-0.272
same,glycan array binding signal (z-score),[11],-0.344
same,glycan array binding signal (z-score),[12],1.04
same,glycan array binding signal (z-score),[13],-0.267
same,glycan array binding signal (z-score),[14],-0.273
same,glycan array binding signal (z-score),[15],-0.283
same,glycan array binding signal (z-score),[16],2.26
same,glycan array binding signal (z-score),[17],-0.155
same,glycan array binding signal (z-score),[18],-0.138
same,glycan array binding signal (z-score),[19],-0.241
same,glycan array binding signal (z-score),[20],-0.3
same,glycan array binding signal (z-score),[21],-0.269
same,glycan array binding signal (z-score),[22],-0.288
same,glycan array binding signal (z-score),[23],-0.269
same,glycan array binding signal (z-score),[24],-0.297
same,glycan array binding signal (z-score),[25],-0.275
same,glycan array binding signal (z-score),[26],-0.036
same,glycan array binding signal (z-score),[27],0.191
same,glycan array binding signal (z-score),[28],-0.147
same,glycan array binding signal (z-score),[29],0.028
same,glycan array binding signal (z-score),[30],-0.255
same,glycan array binding signal (z-score),[31],-0.25
same,glycan array binding signal (z-score),[32],-0.247
same,glycan array binding signal (z-score),[33],-0.225
